Out of some 310,000 compounds screened, about 2,200 (0.71%) showed an effect of 50% or more. The effect is printed as a negative number. Some of the results follow.
Biological target: human ether-à-go-go-related gene (hERG) potassium channel (human, UniProt Q12809)
Assay: primary screen, population patch clamp on CHO cells stably expressing hERG

Sequence of human ether-à-go-go-related gene (hERG) potassium channel (Q12809 whole entry, looked up): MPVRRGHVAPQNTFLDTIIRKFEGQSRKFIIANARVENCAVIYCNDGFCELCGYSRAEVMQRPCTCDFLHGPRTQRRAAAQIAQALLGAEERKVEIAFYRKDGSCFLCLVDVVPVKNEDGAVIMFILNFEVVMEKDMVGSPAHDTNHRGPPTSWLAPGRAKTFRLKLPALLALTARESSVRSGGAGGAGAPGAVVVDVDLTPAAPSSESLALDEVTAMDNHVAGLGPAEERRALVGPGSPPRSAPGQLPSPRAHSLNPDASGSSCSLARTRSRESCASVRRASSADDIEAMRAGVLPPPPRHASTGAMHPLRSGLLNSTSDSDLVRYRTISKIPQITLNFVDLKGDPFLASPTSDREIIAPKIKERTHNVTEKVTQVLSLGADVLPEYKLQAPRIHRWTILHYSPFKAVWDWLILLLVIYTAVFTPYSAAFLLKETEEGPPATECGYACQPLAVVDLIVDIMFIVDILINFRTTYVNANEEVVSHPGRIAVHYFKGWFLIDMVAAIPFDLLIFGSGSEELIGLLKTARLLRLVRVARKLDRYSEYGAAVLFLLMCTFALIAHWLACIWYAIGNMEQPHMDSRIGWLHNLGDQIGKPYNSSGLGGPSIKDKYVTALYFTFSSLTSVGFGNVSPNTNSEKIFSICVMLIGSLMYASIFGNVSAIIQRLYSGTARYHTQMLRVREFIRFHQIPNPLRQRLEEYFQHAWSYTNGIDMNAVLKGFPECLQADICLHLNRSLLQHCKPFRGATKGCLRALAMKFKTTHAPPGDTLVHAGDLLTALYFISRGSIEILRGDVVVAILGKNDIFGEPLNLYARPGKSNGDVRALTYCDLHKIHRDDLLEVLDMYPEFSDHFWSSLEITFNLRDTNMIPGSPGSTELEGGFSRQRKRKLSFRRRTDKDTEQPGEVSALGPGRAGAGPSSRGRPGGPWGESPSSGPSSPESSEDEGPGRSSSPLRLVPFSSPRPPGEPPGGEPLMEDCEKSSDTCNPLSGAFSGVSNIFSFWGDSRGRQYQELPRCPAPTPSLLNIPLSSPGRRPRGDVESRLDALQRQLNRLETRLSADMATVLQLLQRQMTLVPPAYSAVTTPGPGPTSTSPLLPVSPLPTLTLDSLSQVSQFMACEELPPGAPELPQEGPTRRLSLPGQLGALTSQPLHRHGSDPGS

**Q.** For COC(=O)c1[nH]c2ccc(C)cc2c1NC(=O)CCN1CCN(Cc2ccc3c(c2)OCO3)CC1, which “hERG current change (%, negative = inhibition) at 1uM” value is on record?
**A.** Its value is -33%.

**Q.** With O=C(c1csc2ccccc12)N1CCCCCC1 as the compound, how does the “hERG current change (%, negative = inhibition) at 1uM” value read?
**A.** The value was 14.3%.

**Q.** For COc1ccc(C2=NS(=O)(=O)N(C)C(C(=O)NC3CCCC3)=C2)cc1OC, which “hERG current change (%, negative = inhibition) at 1uM” value is on record?
**A.** The value was -9.73%.

**Q.** Cc1occc1C(=O)Nc1ccc([N+](=O)[O-])cc1Br was tested. Which “hERG current change (%, negative = inhibition) at 1uM” value did it give?
**A.** Its value is 13.6%.

**Q.** For Cc1ccc(N2CC(C(=O)N3CCN(c4ccccc4)CC3)CC2=O)cc1 (stereo not shown), which “hERG current change (%, negative = inhibition) at 1uM” value is on record?
**A.** Its value is -5.57%.

**Q.** Which “hERG current change (%, negative = inhibition) at 1uM” value does the source give for Cc1cc(C)c(C#N)c(SCc2ccccc2)n1 here?
**A.** The value was 14%.

**Q.** With O=C(O)CN1C(=O)CCS(=O)c2ccccc21 (stereo not shown) as the compound, how does the “hERG current change (%, negative = inhibition) at 1uM” value read?
**A.** The value was 9.91%.

**Q.** With Cc1cc(C)nc(N(C#N)Cc2cccc(Cl)c2)n1 as the compound, how does the “hERG current change (%, negative = inhibition) at 1uM” value read?
**A.** The value was 6.16%.

**Q.** With Cc1ccc2nc(NCCNC(=O)c3ccccc3)c(C#N)cc2c1 as the compound, how does the “hERG current change (%, negative = inhibition) at 1uM” value read?
**A.** Its value is 10.9%.

**Q.** With CC(C)(C)c1cc(NC(=O)COC(=O)c2ccc3c(=O)n4c(nc3c2)CCC4)n(-c2ccccc2)n1 as the compound, how does the “hERG current change (%, negative = inhibition) at 1uM” value read?
**A.** Its value is 5.48%.

**Q.** Which “hERG current change (%, negative = inhibition) at 1uM” value does the source give for CN1CCN(S(=O)(=O)c2cccc(C(=O)N(C)C(c3ccccc3)c3ccccc3)c2)CC1 here?
**A.** The value was 9.81%.

**Q.** For CCOC(=O)CCc1c(C)nc(-n2[nH]c(C)c(CCO)c2=O)[nH]c1=O, which “hERG current change (%, negative = inhibition) at 1uM” value is on record?
**A.** Its value is 18.3%.

**Q.** How did the “hERG current change (%, negative = inhibition) at 1uM” value turn out when CCc1ccc(CN(C(=O)c2oc3ccccc3c2C)C2CCS(=O)(=O)C2)cc1 (stereo not shown) was run?
**A.** Its value is 5.37%.

**Q.** For COc1ccc([C@H]2CC(=O)C=C(c3ccc(Cl)cc3C)C2)cc1, which “hERG current change (%, negative = inhibition) at 1uM” value is on record?
**A.** Its value is 10.9%.

**Q.** How did the “hERG current change (%, negative = inhibition) at 1uM” value turn out when O=C1CS/C(=N\c2ccccn2)N1C1CCCCC1 was run?
**A.** The value was 9.92%.

**Q.** How did the “hERG current change (%, negative = inhibition) at 1uM” value turn out when CC1CC(C)(C)NC(=S)N1CC(=O)NCc1ccc(Cl)cc1 (stereo not shown) was run?
**A.** The value was 1.36%.

**Q.** With CCOc1cc(/C=N/NC(=O)CN2CCOCC2)ccc1OCc1ccccc1 as the compound, how does the “hERG current change (%, negative = inhibition) at 1uM” value read?
**A.** The value was 2.06%.

**Q.** For CC(=O)c1ccc(S(=O)(=O)NC2CC(=O)N(c3ccc(C)c(C)c3)C2)cc1 (stereo not shown), which “hERG current change (%, negative = inhibition) at 1uM” value is on record?
**A.** Its value is -2.68%.

**Q.** For O=C(COC(=O)c1ccc(O)cc1O)c1ccc(Cl)cc1, which “hERG current change (%, negative = inhibition) at 1uM” value is on record?
**A.** The value was 11.5%.

**Q.** With COc1cccc(CNC(=O)CCCC(=O)NC(C)CCc2ccccc2)c1 (stereo not shown) as the compound, how does the “hERG current change (%, negative = inhibition) at 1uM” value read?
**A.** Its value is 11.5%.

**Q.** Which “hERG current change (%, negative = inhibition) at 1uM” value does the source give for COc1cc2c(cc1OC)C(c1cc(Br)c(OC)c(OC)c1)CC(=O)N2 (stereo not shown) here?
**A.** Its value is 14.9%.

**Q.** How did the “hERG current change (%, negative = inhibition) at 1uM” value turn out when CC(Sc1nc(-c2ccccc2)cc(C(F)(F)F)n1)C(=O)Nc1sc2c(c1C#N)CCC2 (stereo not shown) was run?
**A.** Its value is 11.6%.

**Q.** For CC1CC(C)CN(C(=O)CCNS(=O)(=O)c2ccc3c(c2)CCC(=O)N3)C1 (stereo not shown), which “hERG current change (%, negative = inhibition) at 1uM” value is on record?
**A.** Its value is 13.6%.

**Q.** How did the “hERG current change (%, negative = inhibition) at 1uM” value turn out when Cc1[nH]c(=O)[nH]c(=O)c1S(=O)(=O)Nc1ccc(F)c([N+](=O)[O-])c1 was run?
**A.** The value was 10%.

**Q.** CC(C)Cc1nnc(NC(=O)CCS(=O)(=O)c2ccc(Cl)cc2)s1 was tested. Which “hERG current change (%, negative = inhibition) at 1uM” value did it give?
**A.** Its value is 10.7%.

**Q.** For CCOc1cc(-c2nccc3cc(OC)c(OC)cc23)cc(OCC)c1OCC, which “hERG current change (%, negative = inhibition) at 1uM” value is on record?
**A.** The value was 5.03%.

**Q.** How did the “hERG current change (%, negative = inhibition) at 1uM” value turn out when O=C(O)C(=O)O.O=C(c1ccco1)N1CCN(Cc2ccc(F)cc2)CC1 was run?
**A.** Its value is 6.79%.

**Q.** With CN(C)CCCNC(=O)c1ccc(-c2nc(-c3ccc(Cl)cc3)cs2)cc1 as the compound, how does the “hERG current change (%, negative = inhibition) at 1uM” value read?
**A.** The value was 7.04%.

**Q.** How did the “hERG current change (%, negative = inhibition) at 1uM” value turn out when CC(=O)NCCc1ccc(O)cc1 was run?
**A.** Its value is 6.46%.

**Q.** For CCCNc1nc(OCC(F)(F)F)nc(OCC(F)(F)F)n1, which “hERG current change (%, negative = inhibition) at 1uM” value is on record?
**A.** Its value is 4.89%.

**Q.** How did the “hERG current change (%, negative = inhibition) at 1uM” value turn out when CCCCCCCCCCCCN1[C@@H](CC(C)=O)c2cc(F)cc(F)c2S1(=O)=O was run?
**A.** The value was 11.6%.

**Q.** For CCOc1ccccc1NC(=O)C(CC(C)C)NC(=O)C1CCC(C)CC1 (stereo not shown), which “hERG current change (%, negative = inhibition) at 1uM” value is on record?
**A.** Its value is -4.19%.

**Q.** How did the “hERG current change (%, negative = inhibition) at 1uM” value turn out when CCN(CC(=O)Nc1ccc(NC(C)=O)cc1)Cc1c(O)ccc2cc(Br)ccc12 was run?
**A.** Its value is 13.5%.

**Q.** With CCCCNC(=O)c1cc2ccccc2s1 as the compound, how does the “hERG current change (%, negative = inhibition) at 1uM” value read?
**A.** The value was 14%.

**Q.** Which “hERG current change (%, negative = inhibition) at 1uM” value does the source give for COCCCNC(=O)c1ccc(S(=O)(=O)c2ccc(C)cc2)c(NC(C)=O)c1 here?
**A.** Its value is 18.7%.

**Q.** With COc1cc(CNCc2ccccc2)c(Br)cc1OC1CCCC1.Cl as the compound, how does the “hERG current change (%, negative = inhibition) at 1uM” value read?
**A.** The value was 16.9%.

**Q.** CCN(CC)C(=O)C1CC(=O)OC12CCCCC2 (stereo not shown) was tested. Which “hERG current change (%, negative = inhibition) at 1uM” value did it give?
**A.** The value was 8.44%.

**Q.** Which “hERG current change (%, negative = inhibition) at 1uM” value does the source give for CCCCc1c(O)nc(SCC(=O)N2CCOCC2)n(-c2ccc(OC)cc2)c1=O here?
**A.** Its value is 15.8%.

**Q.** For CCOc1ccc(CCNC(=O)c2nn(C)c3c2CS(=O)(=O)c2ccccc2-3)cc1OCC, which “hERG current change (%, negative = inhibition) at 1uM” value is on record?
**A.** The value was 10.3%.

**Q.** How did the “hERG current change (%, negative = inhibition) at 1uM” value turn out when COc1cccc(CNC(=O)C2CCN(c3nnc(N4CCCC4=O)s3)CC2)c1 was run?
**A.** Its value is 18.2%.

**Q.** O=C(N/N=C/C=C\c1cccc([N+](=O)[O-])c1)c1ccccn1 was tested. Which “hERG current change (%, negative = inhibition) at 1uM” value did it give?
**A.** Its value is 5.57%.

**Q.** O=C(CC(=O)N/N=C/c1ccc(O)cc1)N/N=C/c1ccc(O)cc1 was tested. Which “hERG current change (%, negative = inhibition) at 1uM” value did it give?
**A.** Its value is 10.1%.

**Q.** How did the “hERG current change (%, negative = inhibition) at 1uM” value turn out when COc1ccccc1C(=O)N(Cc1cccs1)C1CCS(=O)(=O)C1 (stereo not shown) was run?
**A.** The value was 4.49%.

**Q.** Which “hERG current change (%, negative = inhibition) at 1uM” value does the source give for COc1ccc(C(=O)Nc2ccc3nc(N4CCCCC4)cc(C)c3c2)cc1OC here?
**A.** Its value is -20.6%.

**Q.** With COc1cc(CCN2C(=O)N[C@@H](c3cccc(C(F)(F)F)c3)C(C(C)=O)=C2C)cc(OC)c1OC as the compound, how does the “hERG current change (%, negative = inhibition) at 1uM” value read?
**A.** Its value is -13%.

**Q.** COCc1cc(N2CCCCC2)nc(-c2ccccc2)n1 was tested. Which “hERG current change (%, negative = inhibition) at 1uM” value did it give?
**A.** Its value is 7.78%.

**Q.** How did the “hERG current change (%, negative = inhibition) at 1uM” value turn out when O=C(CCS(=O)(=O)Cc1ccccc1)N1CCN(Cc2ccccc2)CC1 was run?
**A.** The value was -0.639%.

**Q.** O=C1/C(=C\c2ccc3c(c2)OCO3)N2CCC1CC2 was tested. Which “hERG current change (%, negative = inhibition) at 1uM” value did it give?
**A.** Its value is 2.9%.

**Q.** Cc1ccc(-c2csc(NC(=O)c3c(C)noc3C)n2)cc1C was tested. Which “hERG current change (%, negative = inhibition) at 1uM” value did it give?
**A.** The value was 7.4%.

**Q.** With CCCS(=O)(=O)N1CCC(C(=O)NCCC(C)C)CC1 as the compound, how does the “hERG current change (%, negative = inhibition) at 1uM” value read?
**A.** Its value is 7.18%.

**Q.** Which “hERG current change (%, negative = inhibition) at 1uM” value does the source give for CC(C)C[C@@H](CSc1ccccc1)N1CCN(C)CCC1=O here?
**A.** The value was 9.48%.

**Q.** How did the “hERG current change (%, negative = inhibition) at 1uM” value turn out when COCC(C)N1CCC(Oc2cccc(C(=O)NCCc3ccccc3)c2)CC1 (stereo not shown) was run?
**A.** The value was -34.1%.

**Q.** Which “hERG current change (%, negative = inhibition) at 1uM” value does the source give for CCCCNC(=S)NNC(=O)c1ccncc1 here?
**A.** Its value is 11.5%.

**Q.** CCc1cc(C=C(Cl)Cl)oc(=O)c1C was tested. Which “hERG current change (%, negative = inhibition) at 1uM” value did it give?
**A.** The value was -1.86%.

**Q.** COc1ccccc1OC(=O)c1ccc(S(=O)(=O)N(C)C)cc1 was tested. Which “hERG current change (%, negative = inhibition) at 1uM” value did it give?
**A.** Its value is 12.4%.

**Q.** For NC(=S)N/N=C/c1coc2cc(Cl)ccc2c1=O, which “hERG current change (%, negative = inhibition) at 1uM” value is on record?
**A.** Its value is 10.8%.

**Q.** For CCN(CC(=O)Nc1ccccc1C(F)(F)F)C(=O)Cn1c(=O)cnc2ccccc21, which “hERG current change (%, negative = inhibition) at 1uM” value is on record?
**A.** Its value is 10.1%.

**Q.** For O=C(NCCS(=O)(=O)NCc1ccc(F)cc1)c1ccc2c(c1)OCO2, which “hERG current change (%, negative = inhibition) at 1uM” value is on record?
**A.** Its value is -4.13%.
